Test results taken from the supplement of paper PMC11417369.
The other results are listed elsewhere or left out.

Test system: PfSIP2 AP2 domain 1 (GST-tagged)
Experiment: gcPBM binding intensity (ln(normalized median fluorescence intensity)); higher = stronger DNA binding
Procedure, shortened: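 In this array assay, P. falciparum DNA-binding domains with a GST tag, expressed in E. coli, were applied for 1 h to primer-extended double-stranded 36-bp intergenic genomic probes and negative controls on an Agilent 4 × 180k array. Bound protein was visualised with Alexa488 anti-GST antibody at 488 nm. Binding intensity is the highest Masliner-normalised natural-log median intensity across replicate spots of either probe orientation.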

Sequence	gcPBM binding intensity (ln)
TAGTAGTATTCATCCAGTACATATAAATGTATAATA [XGTACX_site7552]	6.95
GAGCATTACACATATACACACATATAAATAAACATA [CACACA_site7315]	7.45
GAGAAATTTATACATACACACATATAAATATTATAG [CACACA_site7819]	7.1
CTTTGCATTACGAACATACACACAGAATAACTGAAA [CACACA_site3024]	7.32
AATAATATATAAGAAAGTACAAAAAAATAAAATAAA [XGTACX_site3302]	6.97
TTTTAATGAAATATCAAAAAAATTTATGATTTCAAA [GTGCAC_negctrl_site662]	6.58
AAAAAGAAAAAACTTACACACATATATACACCCATG [CACACA_site8079]	6.91
ATATCAAATAGACAAACACACAAAGGAAGAGTGAAA [CACACA_site3921]	6.75
TTCTTTTTTTTTTTTTTTTTTTTATAGTACAAAAAA [TGCATGCA_negctrl_site450]	7.17
ATCTATATTATTTCTACACACATATCTATAATATGT [CACACA_site7561]	7.07
TTTTTTTTTTTGTGTGCATGTGCTAGGAAAGGTAGG [TGCATGCA_site330]	7.88
TTTCAATGTGACACGTGTCCGTAAAATTACATAATT [XGTACX_site7073]	6.96
ATTAATAAAAGATAAAGTACAAATCGGAAAATGAAT [XGTACX_site7846]	7.09
TTGTTCATCTTTTTTTTTTTTTTTTTTTTTTAAATC [CACACA_negctrl_site191]	6.72
AAGATTAAACATTGCACACAGAAATATATTTTCTAT [CACACA_site2374]	7.12
TGAACTCATAGGAAAACACACATATGTGCAATATAT [CACACA_site6231]	7.34
ACAATGATAGTGTAAAGTACATATATATAAAAAAAT [XGTACX_site5928]	7.31
TGTTATTATTAAGACACACACACAAAAAAAAAAAAA [CACACA_site1481]	7
TTTATAATATGTTATACATGCAGGTACCTTTTTGTA [TGCATGCA_site746]	6.87
ATTTATAATTTTTGAGCACACACAAGCATATATATA [CACACA_site8531]	7.16
TTTTGAATATATTAAATAAATTAAAAATCTACAAAC [GTGCAC_negctrl_site622]	6.96
AGATCATAATATTATACACACATTATATATCTGTAA [CACACA_site4925]	6.88

Sequence	gcPBM binding intensity (ln)
TAATAAATTCAAAACATAAAAAGGAAAAAAAAAAAA [CACACA_negctrl_site1330]	6.8
TTATTATATACAAAATGTACACAGAATAATTTGAAT [XGTACX_site2314]	7.16
ATATATATATATATATGTACATAATATATTATATAT [XGTACX_site924]	9.82
TTTTTTTTTTTTTTGGTGCAGTTCACATATTATATA [GTGCAC_site9996]	9.48
TGTGTAAGCACATACAAACACACAACCTTATTTTTA [CACACA_site2187]	6.8
TATATTAACAAAATGGTGCAATAATTTCTATATTGT [GTGCAC_site9430]	9.87
TTATTATATTAAAAGAGGACACATTTATTTTTTTTT [XGTACX_site1241]	6.88
AAAATATTTAATAGAAGTACACATGTATATATACAT [XGTACX_site8942]	7.03
AAAAAAAAAAAAAAAAAAAAAAAAAAAAATAAAAAA [CACACA_negctrl_site59]	8.71
ACGATTCAAAGGGAATATAAAATATTATTATCTATA [CACACA_negctrl_site1739]	6.72
AATAGAATAATCCTTACACACACACCCACACGAATA [CACACA_site8053]	7.22
AACCAATATGCGTATACACACATAAATATAAATATA [CACACA_site3780]	7
TTTTTTTTTTTTTGAACACACATTATTAATTTTTAT [CACACA_site308]	6.89
ATATATTTTTTTTATACATGCAATGCATTTACGTTG [TGCATGCA_site565]	7.19
TTTTTTATATATTAGGAATTTATAAAATTAGAAGGT [GTGCAC_negctrl_site617]	7.64
AACCAGTTGATGTGTACACATATAGTAATAATTTTA [CACACA_site5564]	7.05
GTATTAATTTTAAGGTGTACGCAAAAAATTTAATTT [XGTACX_site718]	7.53
TTTTTTTTTTTTTTTTTTTTTTTTTCATATTAATAT [GTGCAC_negctrl_site351]	6.93
ATTGATACATCCAATACACACTACATATTATGATGT [CACACA_site6965]	6.99
TTGGCATACAGACACACACACACACCCCCACATATA [CACACA_site590]	7.59
AATTTATTAAAAAAATGTACTTATTTTTTTGTATAA [XGTACX_site5844]	7
ACATATTGTAGATATTGTACATATTGTGTATATATT [XGTACX_site7620]	7
